According to PubChem BioAssay AID588591 (National Center for Advancing Translational Sciences (NCATS), 2011):
Out of some 390,000 compounds screened, about 4,700 (1.2%) were called active. The inconclusive results got no clear call from the source; some entries with a clear call stand among them for comparison. Calls come from the whole dose curve; as a rule, active = well fitted inhibition curve with a large enough effect; inconclusive = small, poorly fitted or top-dose-only effect, or another doubt; inactive = no such curve, though single readings can be large or run the other way. Potencies beside an inconclusive call are fits to weak or partial responses and may not hold up.

Biological target: DNA polymerase eta (Homo sapiens) (UniProt Q9Y253)
Sequence of UniProt Q9Y253 (Q9Y253 whole entry, looked up): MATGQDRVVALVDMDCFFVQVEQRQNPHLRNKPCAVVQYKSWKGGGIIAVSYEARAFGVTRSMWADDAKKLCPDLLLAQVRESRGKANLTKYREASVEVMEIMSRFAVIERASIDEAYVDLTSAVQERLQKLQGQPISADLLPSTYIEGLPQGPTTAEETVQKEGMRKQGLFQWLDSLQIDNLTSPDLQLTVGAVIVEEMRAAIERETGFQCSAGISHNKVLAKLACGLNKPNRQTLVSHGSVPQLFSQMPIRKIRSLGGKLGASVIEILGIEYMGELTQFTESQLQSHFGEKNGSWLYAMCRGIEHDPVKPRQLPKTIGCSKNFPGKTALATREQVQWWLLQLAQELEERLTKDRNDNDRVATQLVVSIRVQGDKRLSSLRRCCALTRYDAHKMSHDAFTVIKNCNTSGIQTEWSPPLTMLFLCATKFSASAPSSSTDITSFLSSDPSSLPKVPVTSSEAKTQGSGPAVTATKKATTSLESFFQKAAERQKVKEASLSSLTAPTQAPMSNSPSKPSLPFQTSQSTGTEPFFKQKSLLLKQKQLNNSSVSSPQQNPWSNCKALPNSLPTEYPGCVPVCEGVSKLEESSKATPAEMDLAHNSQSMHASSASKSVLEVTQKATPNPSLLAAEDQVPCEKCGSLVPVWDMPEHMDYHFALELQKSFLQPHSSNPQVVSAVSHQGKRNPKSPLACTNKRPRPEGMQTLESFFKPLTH
Experiment: qHTS for Inhibitors of Polymerase Eta
Conditions: recombinant Pol eta, fluorescent DNA replication assay; series mostly up to 114 µM
In short: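 Pol eta (10 nM) was preincubated with compounds for 15 min at room temperature, after which fluorescent replication substrate (50 nM final) was added to start the reaction. Fluorescence was read kinetically at 0 and 10 min.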
Potency is the fitted concentration of half-maximal effect; tags give direction and shape of the fitted curve.

Structure (SMILES)	Potency
COc1ccc(S(=O)(=O)N(C(=O)C(C)C)c2ccc3oc(=O)sc3c2)cc1	inactive
CN(c1ccccc1C(=O)O)S(=O)(=O)c1ccc2c3c(cccc13)C(=O)N2	active: 12.6 µM
COC(=O)c1ccc(NS(=O)(=O)c2ccc3[nH]c(=O)oc3c2)cc1	active: 25.1 µM
COc1ccc(/C=N/Nc2nncc3ccccc23)cc1	inactive
COc1ccc2nc(N3CCCCC3)c(/C=C3\SC(=S)NC3=O)cc2c1	active: 35.5 µM
O=C(O)c1ccc(NC2=C/C(=N/S(=O)(=O)c3cccs3)c3ccccc3C2=O)cc1	active: 8.91 µM
CS(=O)(=O)N(Cc1nc2sc3c(c2c(=O)[nH]1)CCCC3)C1CCCCC1	inconclusive: 31.6 µM [inhibitor, partial curve, poor fit]
O=C(NCC(c1ccc2c(c1)OCO2)N1CCN(c2ccccc2)CC1)C(=O)Nc1ccc(F)cc1 (stereo unspecified)	inactive
Cc1cccc(NC(=O)CN2C(=O)N/C(=C\c3ccc(-c4cccc(C(=O)O)c4)o3)C2=O)c1	inconclusive: 11.2 µM [inhibitor, full curve, poor fit]
Cc1nc2c(-c3ccccc3)c(C)nn2c(N)c1-c1ccccc1	inconclusive: 25.1 µM [inhibitor, partial curve, poor fit]
COc1ccc(C2Nc3ccccc3C(=O)N2Cc2ccccc2)cc1CSc1ccccn1 (stereo unspecified)	inconclusive: 79.4 µM [inhibitor, partial curve, poor fit]
CC1=NOC(=O)/C1=C\c1ccc(-c2cccc(Cl)c2)o1	active: 20 µM
COCCCNC(=O)C1CCN(Cc2cc3ccccc3n2Cc2cccc(Cl)c2)CC1	inconclusive: 79.4 µM [inhibitor, partial curve, poor fit]
CCCc1nc2c(c(=O)c3ccccc3n2C)c(=O)n1C1CCCCCC1	inconclusive: 20 µM [inhibitor, single point]
O=c1c2c(nc3cc(-c4ccc(F)cc4)[nH]n13)CCCC2	inconclusive: 22.4 µM [inhibitor, single point]
COc1ccc(N(C)S(=O)(=O)c2cccc(C(=O)OCC(=O)NCc3ccccc3OC)c2)cc1	inconclusive: 89.1 µM [inhibitor, partial curve, poor fit]
O=C(COc1ccc2c(-c3ccccc3)cc(=O)oc2c1)Nc1ccc(CCO)cc1	inconclusive: 25.1 µM [inhibitor, partial curve]
O=C(CCn1c(=O)oc2ccccc21)N(Cc1ccccc1)c1ccccc1	inconclusive: 89.1 µM [inhibitor, partial curve, poor fit]
O=S(=O)(Nc1nc2n(n1)C(c1ccc(F)cc1)C=C(c1ccc(Cl)cc1)N2)c1ccccc1 (stereo unspecified)	active: 89.1 µM
Cc1ccccc1C(=O)NNC(=O)c1cc(N)cc([N+](=O)[O-])c1	inconclusive: 28.2 µM [inhibitor, partial curve]
COc1c(Br)cc(/C=N/n2c(-c3ccccc3)n[nH]c2=S)c(O)c1Br	active: 79.4 µM
O=C(O)C(Cc1c[nH]c2ccccc12)NS(=O)(=O)c1cccc(Cl)c1Cl (stereo unspecified)	inconclusive: 31.6 µM [inhibitor, single point]

Structure (SMILES)	Potency
O=[N+]([O-])c1ccc(Sc2cccc[n+]2[O-])c2nonc12	active: 4.47 µM
C/C=C/C=C\C(=O)Nc1cccc(C2=NOC3(C2)C[C@H](C(N)=O)N(C(=O)/C=C/C)C3)c1 (stereo partly specified)	active: 22.4 µM
N#Cc1ccccc1S(=O)(=O)N1CCN(C(=O)C2COc3ccccc3O2)CC1 (stereo unspecified)	inconclusive: 11.2 µM [inhibitor, partial curve, poor fit]
COc1cc(/C=C2\SC(=S)N(Nc3ccccc3)C2=O)cc(OC)c1OC	inconclusive: 22.4 µM [inhibitor, partial curve, poor fit]
CC(C)C[C@H](NC(=O)c1nc[nH]c1C(=O)N[C@@H](CC(C)C)C(=O)OCc1ccccc1)C(=O)OCc1ccccc1	inconclusive: 50.1 µM [inhibitor, partial curve, poor fit]
CN(Cc1ccccc1)c1ccc2cc(S(=O)(=O)N3CCCCC3)ccc2n1	inactive
CCOc1ccc(NC(=O)CCc2c(C)nc3c4c(C)cc(C)nc4nn3c2C)cc1	inactive
CCOc1ccc2nc3cc(N=Nc4ccc(N)nc4N)ccc3c(N)c2c1	active: 44.7 µM
CCOC(=O)C1CCCN(C(=O)c2ccccc2NC(=O)c2nsc3ccccc23)C1 (stereo unspecified)	inactive
COc1cc(/C=N/NC(=O)c2cc(-c3cccn3C)n[nH]2)cc(OC)c1OC	active: 28.2 µM
COc1ccc(C(=O)Nc2cccc(NC(C)=O)c2)cc1OC	inconclusive: 15.8 µM [inhibitor, partial curve]
Cn1c(SCC(=O)NCc2ccco2)nnc1-c1ccc(S(=O)(=O)N2CCOCC2)cc1	inconclusive: 89.1 µM [inhibitor, partial curve, poor fit]
CCOC(=O)N1CCC(Nc2c(-c3ccccc3)c(=O)c2=O)CC1	inconclusive: 10 µM [inhibitor, partial curve, poor fit]
CCN(CC(=O)Nc1c(F)cccc1F)C(=O)C1CCN(S(=O)(=O)c2ccccc2C(=O)OC)CC1	inactive
O=C(N/N=C/C(Br)=C\c1ccccc1)c1ccc2nc[nH]c2c1	inconclusive: 14.1 µM [inhibitor, partial curve]
C=C1c2cccc(O)c2C(O)=C2C(=O)[C@]3(O)C(O)=C(C(N)=O)C(=O)[C@@H](N(C)C)[C@@H]3[C@@H](O)[C@H]12	active: 31.6 µM
O=C(Nc1ccsc1C(=O)O)c1cccc(Oc2ccccc2)c1	inactive
Cc1cc(N(CCO)CCO)ccc1C(c1ccc(N(CCO)CCO)cc1C)c1ccccc1Cl	inconclusive: 89.1 µM [inhibitor, partial curve, poor fit]
O=C(Nc1ccc(C(=O)N2CCOCC2)cc1)C1CCC1	inactive
Cc1cc2ccccc2n1CCNC(=O)COc1ccc2ccccc2c1	inconclusive: 79.4 µM [inhibitor, partial curve, poor fit]
CC1(C)C(=O)Nc2ccccc2N1C(=O)COC(=O)c1cccnc1Cl	active: 50.1 µM
Cc1ccc2c(CC(=O)NNC(=O)c3ccccc3O)coc2c1	inconclusive: 79.4 µM [inhibitor, partial curve]

Structure (SMILES)	Potency
Cc1cc(-c2cc(C(=O)NCc3ccccc3)on2)nc(NC2CCCC2)n1	inconclusive: 89.1 µM [inhibitor, partial curve, poor fit]
Cc1ccc(NC(=O)c2ccc3c(SCC(=O)O)c4c(nc3c2)CCCC4)c(Br)c1	inconclusive: 89.1 µM [inhibitor, single point]
COc1ccc(-c2nc3ccccc3c(=O)o2)cc1OC	inconclusive: 50.1 µM [inhibitor, partial curve, poor fit]
CCc1ccc(NC(=O)CCc2nc3sc4c(c3c(=O)[nH]2)CCCC4)cc1	active: 44.7 µM
Cc1ccc(C)c(/C=C/C(=O)c2ccccc(=O)c2O)c1	inconclusive: 25.1 µM [inhibitor, full curve, poor fit]
O=c1c2c([nH]c3ccccc13)C(=C1CCCC1)CC2	active: 20 µM
Cc1ccc(CNC(=O)c2nnn(CC(=O)Nc3cc(C)cc(C)c3)c2N)cc1	inconclusive: 50.1 µM [inhibitor, partial curve, poor fit]
NNC(=O)c1oc2nc(-c3ccccc3)cc(-c3ccco3)c2c1N	inconclusive: 39.8 µM [inhibitor, partial curve]
O=C(CSc1ncccn1)N/N=C/c1ccc(OC2CSC2)cc1	inactive
COc1cc(NS(=O)(=O)c2ccc(NC(=S)NC(=O)c3sc4cc(F)ccc4c3Cl)cc2)nc(OC)n1	active: 44.7 µM
COC(=O)/C(=C1/Oc2cc(C)oc(=O)c2S1)C(F)(F)F	inconclusive: 3.98 µM [inhibitor, partial curve, poor fit]
O=C(NC(=S)Nc1ccc(S(=O)(=O)Nc2nccs2)cc1)c1ccc(Br)o1	inactive
CC1Sc2ccc(S(=O)(=O)CCC(=O)N3CCN(c4cccc(Cl)c4)CC3)cc2NC1=O (stereo unspecified)	inconclusive: 79.4 µM [inhibitor, partial curve, poor fit]
O=C(O)c1cccc(N2C(=O)c3ccc(C(=O)c4cccc([N+](=O)[O-])c4)cc3C2=O)c1	active: 56.2 µM
CC1(C)C(=O)Nc2ccccc2N1C(=O)COC(=O)Cc1c(F)cccc1Cl	inconclusive: 31.6 µM [inhibitor, partial curve, poor fit]
CCc1cccc(NCc2ccccc2-c2nnc(-c3ccccc3Cl)o2)c1	inconclusive: 89.1 µM [inhibitor, partial curve, poor fit]
O=C(O)Cn1cnc2scc(-c3cccs3)c2c1=O	active: 20 µM
COc1ccc(-n2c(SCc3ccccc3F)nc3c([nH]c4ccccc43)c2=O)cc1	inactive
Cc1csc2ncc(C(=O)Nc3ccccc3Cl)c(=O)n12	inconclusive: 20 µM [inhibitor, partial curve]
CCOc1ccc(CNC(=O)C2CCN(c3nnc(C)c4c(C)n(-c5ccc(C)cc5)nc34)CC2)cc1	inconclusive: 14.1 µM [inhibitor, full curve, poor fit]
NC(=NC(=O)c1cccc(C(F)(F)F)c1)c1ccc(C(F)(F)F)cn1	inconclusive: 8.91 µM [inhibitor, partial curve, poor fit]
CCCCN1CC(O)=C(c2nc(-c3ccc(Br)cc3)cs2)C1=N	inconclusive: 89.1 µM [inhibitor, partial curve]
